Publication PMC9911399, “Two distinct binding modes provide the RNA-binding protein RbFox with extraordinary sequence specificity”
Positions count from the first letter of the chain named. The list shows a part of the results.

T1: RBFOX1 RRM (Homo sapiens, UniProt Q9NWB1 109-208)
T1 sequence: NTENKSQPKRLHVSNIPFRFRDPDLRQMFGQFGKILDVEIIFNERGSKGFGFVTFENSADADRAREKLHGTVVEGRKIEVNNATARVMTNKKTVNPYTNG

B1: UUACCGA (DNA:RNA)
RNA: GGGAGACCGGAAUUCAGAUUGUCCUUACCGAUUAAAUCCCGUCGUAGCCACCA
DNA 1: CAATCTGAATTCCGGTCTCCC
DNA 2: TGGTGGCTACGACGGGATT
B2: GUCCUUU (DNA:RNA)
RNA: B1 RNA with U25G, A27C, C29U, G30U, A31U
DNA 1: CAATCTGAATTCCGGTCTCCC
DNA 2: TGGTGGCTACGACGGGATT
B3: AUCAAAA (DNA:RNA)
RNA: B1 RNA with U25A, A27C, C28A, C29A, G30A
DNA 1: CAATCTGAATTCCGGTCTCCC
DNA 2: TGGTGGCTACGACGGGATT
B4: GAACCCU (DNA:RNA)
RNA: B1 RNA with U25G, U26A, G30C, A31U
DNA 1: CAATCTGAATTCCGGTCTCCC
DNA 2: TGGTGGCTACGACGGGATT
B5: GGGUCAC (DNA:RNA)
RNA: B1 RNA with U25G, U26G, A27G, C28U, G30A, A31C
DNA 1: CAATCTGAATTCCGGTCTCCC
DNA 2: TGGTGGCTACGACGGGATT
B6: UCGGUUG (DNA:RNA)
RNA: B1 RNA with U26C, A27G, C28G, C29U, G30U, A31G
DNA 1: CAATCTGAATTCCGGTCTCCC
DNA 2: TGGTGGCTACGACGGGATT
B7: GUUACGU (DNA:RNA)
RNA: B1 RNA with U25G, A27U, C28A, A31U
DNA 1: CAATCTGAATTCCGGTCTCCC
DNA 2: TGGTGGCTACGACGGGATT
B8: GCCUACU (DNA:RNA)
RNA: GGGAGACCGGAAUUCAGAUUGUCCGCCUACUUUAAAUCCCGUCGUAGCCACCA
DNA 1: CAATCTGAATTCCGGTCTCCC
DNA 2: TGGTGGCTACGACGGGATT
B9: CAGACGC (DNA:RNA)
RNA: B1 RNA with U25C, U26A, A27G, C28A, A31C
DNA 1: CAATCTGAATTCCGGTCTCCC
DNA 2: TGGTGGCTACGACGGGATT
B10: CAAAAAC (DNA:RNA)
RNA: B8 RNA with G25C, C26A, C27A, U28A, C30A, U31C
DNA 1: CAATCTGAATTCCGGTCTCCC
DNA 2: TGGTGGCTACGACGGGATT
B11: AAGCACA (DNA:RNA)
RNA: B8 RNA with G25A, C26A, C27G, U28C, U31A
DNA 1: CAATCTGAATTCCGGTCTCCC
DNA 2: TGGTGGCTACGACGGGATT
B12: UGUGUCG (DNA:RNA)
RNA: B8 RNA with G25U, C26G, C27U, U28G, A29U, U31G
DNA 1: CAATCTGAATTCCGGTCTCCC
DNA 2: TGGTGGCTACGACGGGATT
B13: ACACCCU (DNA:RNA)
RNA: B8 RNA with G25A, C27A, U28C, A29C
DNA 1: CAATCTGAATTCCGGTCTCCC
DNA 2: TGGTGGCTACGACGGGATT
B14: ACUUCCG (DNA:RNA)
RNA: B8 RNA with G25A, C27U, A29C, U31G
DNA 1: CAATCTGAATTCCGGTCTCCC
DNA 2: TGGTGGCTACGACGGGATT
B15: UCCGUCU (DNA:RNA)
RNA: B8 RNA with G25U, U28G, A29U
DNA 1: CAATCTGAATTCCGGTCTCCC
DNA 2: TGGTGGCTACGACGGGATT
B16: CUCGAUG (DNA:RNA)
RNA: B8 RNA with G25C, C26U, U28G, C30U, U31G
DNA 1: CAATCTGAATTCCGGTCTCCC
DNA 2: TGGTGGCTACGACGGGATT
B17: AAUAGUC (DNA:RNA)
RNA: GGGAGACCGGAAUUCAGAUUGUCCAAUAGUCUUAAAUCCCGUCGUAGCCACCA
DNA 1: CAATCTGAATTCCGGTCTCCC
DNA 2: TGGTGGCTACGACGGGATT
B18: UCAAACG (DNA:RNA)
RNA: B8 RNA with G25U, C27A, U28A, U31G
DNA 1: CAATCTGAATTCCGGTCTCCC
DNA 2: TGGTGGCTACGACGGGATT
B19: AAUGUUU (DNA:RNA)
RNA: B17 RNA with A28G, G29U, C31U
DNA 1: CAATCTGAATTCCGGTCTCCC
DNA 2: TGGTGGCTACGACGGGATT
B20: CGAUGCU (DNA:RNA)
RNA: B8 RNA with G25C, C26G, C27A, A29G
DNA 1: CAATCTGAATTCCGGTCTCCC
DNA 2: TGGTGGCTACGACGGGATT

Molecular target: T1, RBFOX1 RRM
Assay: EMSA; HiTS-Eq, 1 nM pool, 10 min; buffer printed only for the single-RNA assays: 10 mM Tris pH 7.5, 150 mM NaCl, 3.4 mM EDTA, 0.001% NP-40, 30 C
Details: tags: His6 N-terminal (pET28a); label: 5' 32P
How it was run: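 Purified RbFox RRM, wild type or mutant, was incubated for 10 min in 50 µL with 1 nM of a 5′-radiolabelled RNA pool carrying 7 randomized nucleotides, whose flanks were annealed to DNA oligonucleotides, over a series of increasing protein concentrations. Unbound RNA was resolved on 8% native PAGE, cut out, reverse-transcribed, barcoded by PCR and sequenced on an Illumina HiSeq 2500. Relative association constants were derived from changes in read counts for each RNA species versus the control reaction and normalised to the cognate motif.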

With B1 as the binder, how does the binding signal read?
The binding signal was 0.00925 KA relative to UGCAUGU.

For B2, which binding signal is on record?
The binding signal was 0.012 KA relative to UGCAUGU.

How did the binding signal turn out when B3 was run?
Its binding signal is 0.00197 KA relative to UGCAUGU.

Which binding signal does the source give for B4 here?
Its binding signal is 0.00371 KA relative to UGCAUGU.

For B5, which binding signal is on record?
Its binding signal is 0.0219 KA relative to UGCAUGU.

B6 was tested. Which binding signal did it give?
The binding signal was 0.0277 KA relative to UGCAUGU.

With B7 as the binder, how does the binding signal read?
The binding signal was 0.01 KA relative to UGCAUGU.

For B8, which binding signal is on record?
Its binding signal is 0.00598 KA relative to UGCAUGU.

With B9 as the binder, how does the binding signal read?
The binding signal was 0.00366 KA relative to UGCAUGU.

For B10, which binding signal is on record?
The binding signal was 0.00139 KA relative to UGCAUGU.

For B11, which binding signal is on record?
The binding signal was 0.0054 KA relative to UGCAUGU.

How did the binding signal turn out when B12 was run?
Its binding signal is 0.024 KA relative to UGCAUGU.

B13 was tested. Which binding signal did it give?
Its binding signal is 0.00292 KA relative to UGCAUGU.

For B14, which binding signal is on record?
Its binding signal is 0.00599 KA relative to UGCAUGU.

With B15 as the binder, how does the binding signal read?
Its binding signal is 0.0154 KA relative to UGCAUGU.

How did the binding signal turn out when B16 was run?
The binding signal was 0.0129 KA relative to UGCAUGU.

Which binding signal does the source give for B17 here?
Its binding signal is 0.00816 KA relative to UGCAUGU.

B18 was tested. Which binding signal did it give?
Its binding signal is 0.00325 KA relative to UGCAUGU.

For B19, which binding signal is on record?
The binding signal was 0.00815 KA relative to UGCAUGU.

With B20 as the binder, how does the binding signal read?
The binding signal was 0.0159 KA relative to UGCAUGU.
